# Out of some 390,000 compounds screened, about 150 (0.038%) were called active. Inconclusive means that the source gave no clear call. Such entries were picked first, then a sample of the others. The call rests on the fitted dose curve; in most records, active means well fitted inhibition curve with a large enough effect; inconclusive means small, poorly fitted or top-dose-only effect; inactive means no such curve, though single readings can be large or run the other way. A potency beside an inconclusive call is a rough fit, not a confirmed value.
# Target: Regulator of G-protein signaling 4 (Homo sapiens) (UniProt P49798)
# UniProt P49798, sequence (P49798 whole entry, looked up): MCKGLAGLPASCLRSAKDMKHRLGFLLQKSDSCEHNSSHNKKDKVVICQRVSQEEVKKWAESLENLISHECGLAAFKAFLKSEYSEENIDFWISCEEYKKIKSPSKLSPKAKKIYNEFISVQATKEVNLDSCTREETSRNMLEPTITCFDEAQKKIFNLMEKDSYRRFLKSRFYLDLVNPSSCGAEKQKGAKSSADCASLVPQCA
# Test: Inhibitors of Regulator of G Protein Signaling (RGS) 4: qHTS; further: nearly all actives have a fitted effect of over 75% in size
# Conditions: Transcreener GDP fluorescence polarization, RGS4-accelerated GTP hydrolysis; series mostly up to 114 µM; activity change, negative = inhibition: at the top concentration
# Outline: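 MLSMR compounds (23 nl, pin-transferred) preincubated 10 min at room temperature with a 500nM (2x) first reagent, then RGS4 at 900nM (2x) plus Transcreener GDP mix added; fluorescence polarization (620/688 nm) read before and after 90 min at 30 °C.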
# On the % scale 0 is the no-effect control and ±100 the full control effect; potency means the concentration at half of the fitted maximal effect; tags describe the fitted curve by direction and shape.
SMILES,Potency,"activity change, negative = inhibition"
CCOc1ccc(-c2nnc(SCC(=O)NCc3ccccc3)o2)cc1,"inconclusive: 100 µM [inhibitor, single point]",
CC1CCCCN1C(=O)COC(=O)c1cc(Cl)c2c(c1)OCO2 (stereo not given),"inconclusive: 89.1 µM [inhibitor, single point]",
Cc1ccc(S(=O)(=O)Nc2cc(Cl)c(O)c3ncccc23)cc1,"inconclusive: 50.1 µM [inhibitor, partial curve, poor fit]",
Cc1cc(C(=O)OCC(=O)N2CCOCC2)c2ccccc2n1,"inconclusive: 44.7 µM [inhibitor, partial curve, poor fit]",
CC(C)c1ccc(S(=O)(=O)N2CCN(C(=O)C3CCCCC3)CC2)cc1,,inactive: 2.59%
O=C(Nc1ccc2oc(-c3ccncc3)nc2c1)c1ccc2c(c1)OCCO2,"inconclusive: 79.4 µM [inhibitor, partial curve, poor fit]",
CC1=C(C(=O)Nc2ccccc2)C(c2cccs2)C(C#N)=C(SCC#N)N1 (stereo not given),"inconclusive: 50.1 µM [inhibitor, partial curve, poor fit]",
C=C1C(=O)C23C(O)C1CCC2C12CCCC(C)(COC(C)=O)C1C(O)C3(O)OC2 (stereo not given),"inconclusive: 28.2 µM [inhibitor, full curve, poor fit]",
Cc1ccccc1NC(=O)CN1C(=O)S/C(=C\c2ccc(-c3cc(C(=O)O)ccc3C)o2)C1=O,"inconclusive: 50.1 µM [inhibitor, partial curve, poor fit]",
CCN(CC(=O)Nc1ccc(NC(C)=O)cc1)C(=O)COc1ccccc1Cc1ccccc1,"inconclusive: 89.1 µM [inhibitor, single point]",
Cc1cc(NC(=O)CSc2nnnn2-c2ccc(C(C)C)cc2)no1,"inconclusive: 79.4 µM [inhibitor, partial curve, poor fit]",
Cc1cc(=O)c2ccccc2[nH]1,,inactive: 29%
CNC(=O)c1c(NC(=O)c2ccc(S(=O)(=O)N3CCCc4ccccc43)cc2)sc2c1CCN(C)C2,"inconclusive: 50.1 µM [inhibitor, partial curve, poor fit]",
CCN1CCN(C(c2cc(OC)ccc2OC)c2nnnn2Cc2ccccc2)CC1 (stereo not given),"inconclusive: 79.4 µM [inhibitor, single point]",
CC1CCN(C(=O)CSc2nc3cccnc3n2C)CC1,"inconclusive: 89.1 µM [inhibitor, single point]",
Cc1ccc(S(=O)(=O)CCC(=O)c2cccc([N+](=O)[O-])c2)cc1,"inconclusive: 31.6 µM [inhibitor, full curve, poor fit]",
O=C(O)C=Cc1ccc(Cn2ccnc2)cc1,active: 2.67 µM,
CN(Cc1ccccc1)S(=O)(=O)c1ccc(NC(=S)NC(=O)C(C)(C)C)cc1,"inconclusive: 28.2 µM [inhibitor, full curve, poor fit]",
CCCN(CCC)S(=O)(=O)c1ccc2c(c1)N(CC(=O)NC(C)c1ccccc1)C(=O)CS2 (stereo not given),,inactive: 0.811%
CCCCC(=O)NC(=S)NNC(=O)c1ccc(OC)cc1,"inconclusive: 79.4 µM [inhibitor, partial curve, poor fit]",

SMILES,Potency,"activity change, negative = inhibition"
Cc1ccc(C2(c3noc(CN(C)CC4CCCCO4)n3)CCCC2)cc1 (stereo not given),,inactive: 19.1%
O=C(O)CC/C=C\CC[C@H]1[C@@H](N2CCCCC2)[C@@H](O)C[C@@H]1OCc1ccc(-c2ccccc2)cc1,active: 8.44 µM,
CCOC(=O)/C(=N\Nc1ccccc1)S(=O)(=O)c1ccccc1,,inactive: 5.3%
Nc1ccccc1N=c1ssnc1Cl,"inconclusive: 56.2 µM [inhibitor, partial curve, poor fit]",
Nc1nc(-c2ccco2)c(-c2ccco2)s1,"inconclusive: 89.1 µM [inhibitor, partial curve, poor fit]",
COc1ccc(OC)c(C(c2c(C)[nH][nH]c2=O)c2c(C)[nH][nH]c2=O)c1,"inconclusive: 50.1 µM [inhibitor, partial curve, poor fit]",
O=C(NCCCN1CCCC1=O)c1cc(S(=O)(=O)N2CCN(c3ccccc3)CC2)ccc1Cl,"inconclusive: 89.1 µM [inhibitor, single point]",
c1ccc(CN2CCN(c3nc(-c4ccccn4)nc4ccccc34)CC2)cc1,,inactive: 26.8%
N#C/C(=C\c1cccnc1)C(=O)Nc1cccc2ccccc12,"inconclusive: 50.1 µM [inhibitor, partial curve, poor fit]",
O=C(CCO)c1ccc(O)cc1,,inactive: 2.77%
CN1CCC(N(C)C(=S)NC(=O)c2cc(-c3cccc(Br)c3)nc3ccccc23)CC1,"inconclusive: 44.7 µM [inhibitor, partial curve, poor fit]",
Cc1nn(-c2ccccc2)c2nc3c(cc12)C(=O)CCC3,"inconclusive: 89.1 µM [inhibitor, single point]",
COc1ccccc1-c1cc(C(=O)NCc2ccccc2)no1,"inconclusive: 89.1 µM [inhibitor, single point]",
COc1ccc2[nH]cc(/C=C/c3cc[n+](C)cc3)c2c1,"inconclusive: 79.4 µM [inhibitor, partial curve, poor fit]",
CCOC(=O)c1c(NC(=O)COc2ccc(F)cc2)sc2c1CCC(C)C2 (stereo not given),"inconclusive: 89.1 µM [inhibitor, single point]",
COc1ccccc1-c1c(-c2ccc(OCC(=O)NN)cc2O)n[nH]c1C(F)(F)F,,inactive: -6.83%
O=C(Nc1cccc(S(=O)(=O)NC2=NCCC2)c1)c1cc(-c2ccco2)nc2ccccc12,"inconclusive: 50.1 µM [inhibitor, partial curve, poor fit]",
CCN(C(=S)NC(=O)c1ccco1)c1cccc2ccccc12,"inconclusive: 100 µM [inhibitor, partial curve, poor fit]",
CCOC(=O)C(=Cc1ccc(-n2ccnc2)cc1)C(=O)OCC,"inconclusive: 100 µM [inhibitor, partial curve, poor fit]",
C/C(=N\NC(=O)c1ccc([N+](=O)[O-])cc1)c1c(O)cc(C)oc1=O,"inconclusive: 44.7 µM [inhibitor, partial curve, poor fit]",

# Reference: PubChem BioAssay AID504845 (National Center for Advancing Translational Sciences (NCATS), 2011)
